# A collection of fitness landscapes (doi:10.1126/science.1257360)
# The list shows a part of the results.
# B1: PhoQ; a variant is named by its letters at X, in order, P23837 (parent)
# chain: MKKLLRLFFPLSLRVRFLLATAAVVLVLSLAYGMVALIGYSVSFDKTTFRLLRGESNLFYTLAKWENNKLHVELPENIDKQSPTMTLIYDENGQLLWAQRDVPWLMKMIQPDWLKSNGFHEIEADVNDTSLLLSGDHSIQQQLQEVREDDDDAEMTHSVAVNVYPATSRMPKLTIVVVDTIPVELKSSYMVWSWFIYVLSANLLLVIPLLWVAAWWSLRPIEALAKEVRELEEHNRELLNPATTRELTSLVRNLNRLLKSERERYDKYRTTLTDLTHSLKTPLXXLQXXLRSLRSEKMSVSDAEPVMLEQISRISQQIGYYLHRASMRGGTLLSRELHPVAPLLDNLTSALNKVYQRKGVNISLDISPEISFVGEQNDFVEVMGNVLDNACKYCLEFVEISARQTDEHLYIVVEDDGPGIPLSKREVIFDRGQRVDTLRPGQGVGLAVAREITEQYEGKIVAGESMLGGARMEVIFGRQHSAPKDE
# Variants of: B1
# Experiment: enrichment ratio after two sorts for PhoP signalling (ratio (wild type AVST 3.29)); higher = more functional
# Conditions: with PhoP (E. coli)
row,Variant,enrichment ratio
1,VGCR,≤ 0.25
2,NRFV,≤ 0.25
3,HVAR,≤ 0.25
4,KYAP,≤ 0.25
5,FDYH,≤ 0.25
6,TTKG,≤ 0.25
7,HPER,≤ 0.25
8,RPDY,≤ 0.25
9,NNIN,≤ 0.25
10,LSHG,≤ 0.25
11,RWRC,≤ 0.25
12,APYR,≤ 0.25
13,RRMI,≤ 0.25
14,LILE,≤ 0.25
15,YTRP,≤ 0.25
16,PKAF,≤ 0.25
17,KFFR,≤ 0.25
18,WGGW,≤ 0.25
19,FYEN,≤ 0.25
20,IIRG,≤ 0.25
21,GFGV,≤ 0.25
22,VSVD,0.654
23,QGWV,18.5
24,TKLD,3.39

row,Variant,enrichment ratio
1,FYMP,≤ 0.25
2,TYLC,2.2
3,PDWC,≤ 0.25
4,GMFQ,≤ 0.25
5,MHKD,≤ 0.25
6,EYRQ,≤ 0.25
7,PPDL,≤ 0.25
8,GPIH,≤ 0.25
9,IFFA,≤ 0.25
10,EDVK,≤ 0.25
11,LSFP,≤ 0.25
12,HPEA,≤ 0.25
13,QKQH,≤ 0.25
14,FKVA,≤ 0.25
15,NMEW,≤ 0.25
16,VAAK,≤ 0.25
17,RKKE,≤ 0.25
18,ALRK,≤ 0.25
19,RFRQ,≤ 0.25
20,CLYY,≤ 0.25
21,ELWP,≤ 0.25
22,DETW,≤ 0.25
23,DWWK,≤ 0.25
24,ECEW,≤ 0.25

row,Variant,enrichment ratio
1,EITH,≤ 0.25
2,NNNS,≤ 0.25
3,HFFP,≤ 0.25
4,FTED,≤ 0.25
5,FWGG,≤ 0.25
6,FECE,≤ 0.25
7,RVFV,≤ 0.25
8,PFLV,≤ 0.25
9,SWRE,≤ 0.25
10,IVMV,≤ 0.25
11,FPLC,≤ 0.25
12,FAIT,≤ 0.25
13,AMGR,≤ 0.25
14,DDIA,≤ 0.25
15,HTMF,0.694
16,FYRP,≤ 0.25
17,VYKP,≤ 0.25
18,PCQE,≤ 0.25
19,AMKY,≤ 0.25
20,RRAN,≤ 0.25
21,SWKQ,≤ 0.25
22,MMCD,≤ 0.25
23,WPYK,≤ 0.25
24,HPQF,≤ 0.25

row,Variant,enrichment ratio
1,VLSC,≤ 0.25
2,NNYH,≤ 0.25
3,WYPA,≤ 0.25
4,EVSA,≤ 0.25
5,SHYE,≤ 0.25
6,MMIL,≤ 0.25
7,YNIW,≤ 0.25
8,WEIA,≤ 0.25
9,AKDI,≤ 0.25
10,SKFP,≤ 0.25
11,QFPE,≤ 0.25
12,VHPW,≤ 0.25
13,GEVR,0.326
14,RWRH,1.19
15,TADM,2.62
16,KPFV,≤ 0.25
17,QMPW,≤ 0.25
18,TWFH,≤ 0.25
19,GDCV,1.12
20,IRWC,≤ 0.25
21,AAFF,≤ 0.25
22,PWGG,≤ 0.25
23,DFKT,≤ 0.25
24,FYHK,≤ 0.25

row,Variant,enrichment ratio
1,QWLI,≤ 0.25
2,MYWN,≤ 0.25
3,WGTG,1.13
4,LTQC,≤ 0.25
5,MAIW,≤ 0.25
6,QMIA,≤ 0.25
7,HEAS,≤ 0.25
8,DFSF,≤ 0.25
9,CLQP,≤ 0.25
10,TWCC,≤ 0.25
11,EKEL,≤ 0.25
12,NYPM,≤ 0.25
13,INHS,≤ 0.25
14,WQYC,≤ 0.25
15,YRSI,≤ 0.25
16,DWKV,≤ 0.25
17,FSQF,≤ 0.25
18,IALI,9.02
19,GIDR,≤ 0.25
20,HRMK,≤ 0.25
21,LHCA,≤ 0.25
22,IKLF,≤ 0.25
23,YKHY,≤ 0.25
24,KTVP,≤ 0.25

row,Variant,enrichment ratio
1,IFWM,≤ 0.25
2,LTSN,≤ 0.25
3,TQVH,8.69
4,VHPT,≤ 0.25
5,TFAG,2.03
6,PARK,≤ 0.25
7,EELS,≤ 0.25
8,KNYW,≤ 0.25
9,FYHY,≤ 0.25
10,HSPE,≤ 0.25
11,VWHP,≤ 0.25
12,HEFF,≤ 0.25
13,FEDP,≤ 0.25
14,YMTV,≤ 0.25
15,GIPG,≤ 0.25
16,VICV,≤ 0.25
17,TNNQ,≤ 0.25
18,YACI,0.325
19,VATE,≤ 0.25
20,QDGT,≤ 0.25
21,FSWK,≤ 0.25
22,PLSP,≤ 0.25
23,FLFP,≤ 0.25
24,FSNK,≤ 0.25

row,Variant,enrichment ratio
1,TKPN,≤ 0.25
2,AGGR,≤ 0.25
3,MELI,6.46
4,YYAA,≤ 0.25
5,IRNY,≤ 0.25
6,HNSL,≤ 0.25
7,ARPA,≤ 0.25
8,QQQS,≤ 0.25
9,RACC,≤ 0.25
10,WLQP,≤ 0.25
11,VCSQ,≤ 0.25
12,GALS,5.05
13,KHRD,≤ 0.25
14,GTQK,≤ 0.25
15,SFVM,≤ 0.25
16,SGQT,7.49
17,HWYG,≤ 0.25
18,WACI,≤ 0.25
19,FWDW,≤ 0.25
20,QTPL,≤ 0.25
21,KHFW,≤ 0.25
22,VVVC,≤ 0.25
23,PTHR,≤ 0.25
24,TSAQ,19.6

row,Variant,enrichment ratio
1,WMCI,≤ 0.25
2,YRPI,≤ 0.25
3,QVLW,≤ 0.25
4,QMMV,≤ 0.25
5,MTDQ,≤ 0.25
6,YCTS,≤ 0.25
7,NLPN,≤ 0.25
8,IRLR,≤ 0.25
9,LSDD,≤ 0.25
10,IKPC,≤ 0.25
11,LGFW,≤ 0.25
12,KACE,≤ 0.25
13,EPVT,≤ 0.25
14,WNYC,≤ 0.25
15,DDFY,≤ 0.25
16,PMHR,≤ 0.25
17,IAIT,≤ 0.25
18,AMEF,≤ 0.25
19,HDHK,≤ 0.25
20,EICA,≤ 0.25
21,QTDH,29.3
22,LKWA,≤ 0.25
23,AVYL,≤ 0.25
24,YDCG,≤ 0.25

row,Variant,enrichment ratio
1,FGYH,≤ 0.25
2,FISK,≤ 0.25
3,GGHR,≤ 0.25
4,FMLA,≤ 0.25
5,RDAQ,≤ 0.25
6,HGRK,≤ 0.25
7,HHVQ,≤ 0.25
8,MGWC,32.1
9,NWEY,≤ 0.25
10,YKQY,≤ 0.25
11,IWLT,≤ 0.25
12,SFCE,≤ 0.25
13,GKYV,≤ 0.25
14,SCLM,8.63
15,FMYQ,≤ 0.25
16,RFNW,≤ 0.25
17,KGVD,≤ 0.25
18,NYLY,≤ 0.25
19,MLVF,≤ 0.25
20,RSWH,≤ 0.25
21,IKRT,≤ 0.25
22,SHWA,≤ 0.25
23,QNMC,≤ 0.25
24,TDGV,≤ 0.25

row,Variant,enrichment ratio
1,HKFH,≤ 0.25
2,LKCI,≤ 0.25
3,AITH,4.23
4,FGTK,≤ 0.25
5,MQCG,≤ 0.25
6,HCYK,≤ 0.25
7,GRAF,≤ 0.25
8,PESH,≤ 0.25
9,DDTS,≤ 0.25
10,CNMF,≤ 0.25
11,HCKR,≤ 0.25
12,QPHF,≤ 0.25
13,VVCP,≤ 0.25
14,QGVT,≤ 0.25
15,NQVF,≤ 0.25
16,VSKW,≤ 0.25
17,SVNW,≤ 0.25
18,HFNK,≤ 0.25
19,IRVG,≤ 0.25
20,QGWD,≤ 0.25
21,YGLG,6.55
22,WEWG,≤ 0.25
23,YALV,11.1
24,SGMV,14.3

row,Variant,enrichment ratio
1,EAYC,≤ 0.25
2,YQWW,≤ 0.25
3,LNSE,≤ 0.25
4,KTKM,≤ 0.25
5,AMVI,16.3
6,ESFH,≤ 0.25
7,YKWP,≤ 0.25
8,VLCD,≤ 0.25
9,SKYV,≤ 0.25
10,MIVT,≤ 0.25
11,EDLT,≤ 0.25
12,QADC,0.684
13,QAAI,12.7
14,ITIV,≤ 0.25
15,TNLW,≤ 0.25
16,FAIK,≤ 0.25
17,CLHF,≤ 0.25
18,RGWD,≤ 0.25
19,PVVR,≤ 0.25
20,TEMT,7.24
21,NRAN,≤ 0.25
22,PAME,≤ 0.25
23,YMMA,≤ 0.25
24,MLHI,1.88

row,Variant,enrichment ratio
1,MHMN,≤ 0.25
2,WAYS,≤ 0.25
3,AINL,2.56
4,LFFL,≤ 0.25
5,NYSH,≤ 0.25
6,YRAK,≤ 0.25
7,PDQK,≤ 0.25
8,ILHD,≤ 0.25
9,GRGR,≤ 0.25
10,FWCM,≤ 0.25
11,REIM,≤ 0.25
12,YWMC,≤ 0.25
13,ILVK,≤ 0.25
14,CITA,12.4
15,WRQA,≤ 0.25
16,KPTN,≤ 0.25
17,TQTT,23.1
18,FLWL,≤ 0.25
19,SDYG,≤ 0.25
20,YYQT,≤ 0.25
21,VFNW,≤ 0.25
22,MDSD,≤ 0.25
23,NEDY,≤ 0.25
24,AVCH,13

row,Variant,enrichment ratio
1,NATP,≤ 0.25
2,VYNN,≤ 0.25
3,RHIP,≤ 0.25
4,RPQC,≤ 0.25
5,DGYM,≤ 0.25
6,LMVT,≤ 0.25
7,FKWQ,≤ 0.25
8,QPWL,≤ 0.25
9,NYNY,≤ 0.25
10,IVHI,≤ 0.25
11,HSHH,≤ 0.25
12,SQRF,≤ 0.25
13,LDTG,≤ 0.25
14,PKIL,≤ 0.25
15,AYMD,≤ 0.25
16,WNRM,≤ 0.25
17,MTYW,≤ 0.25
18,ARYW,≤ 0.25
